Measurements published in PubChem BioAssay AID588342 (National Center for Advancing Translational Sciences (NCATS), 2011).
Out of some 360,000 compounds screened, about 25,000 (6.9%) were called active. This list was built around the results that the source calls inconclusive (neither active nor inactive); the mix of calls is not that of the screen. The call rests on the fitted dose curve; in most records, active means well fitted inhibition curve with a large enough effect; inconclusive means small, poorly fitted or top-dose-only effect; inactive means flat fitted curve, though single readings scatter. Potencies of inconclusive entries are doubtful fits and often do not repeat.

What follows are compounds tested against Luciferin 4-monooxygenase (Photinus pyralis) (UniProt P08659) (assay: qHTS profiling assay for firefly luciferase inhibitor/activator using purifed enzyme and Km concentrations of substrates (counterscreen for miR-21 project)). Conditions: purified FLuc, luminescence inhibition; series mostly up to 57.5 µM.
Chain of UniProt P08659 (P08659 whole entry, looked up): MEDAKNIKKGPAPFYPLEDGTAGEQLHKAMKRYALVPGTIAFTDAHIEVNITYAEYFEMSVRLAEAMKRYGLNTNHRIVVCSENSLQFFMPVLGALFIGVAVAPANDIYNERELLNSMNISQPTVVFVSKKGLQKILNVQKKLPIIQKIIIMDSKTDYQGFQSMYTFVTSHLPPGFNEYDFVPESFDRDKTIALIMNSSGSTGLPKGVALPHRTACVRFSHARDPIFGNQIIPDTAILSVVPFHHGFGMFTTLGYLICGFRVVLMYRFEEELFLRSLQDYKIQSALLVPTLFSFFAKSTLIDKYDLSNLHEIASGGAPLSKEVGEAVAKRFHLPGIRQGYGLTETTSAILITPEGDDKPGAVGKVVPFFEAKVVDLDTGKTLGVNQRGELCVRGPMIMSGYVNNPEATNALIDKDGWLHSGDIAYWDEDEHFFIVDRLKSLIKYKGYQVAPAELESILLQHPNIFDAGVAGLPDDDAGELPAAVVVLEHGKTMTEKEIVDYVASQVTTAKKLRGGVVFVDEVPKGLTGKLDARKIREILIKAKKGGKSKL
Outline: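 Purified P. pyralis luciferase (10nM final) with 10uM D-luciferin and 10uM ATP (Km levels) in 50mM Tris acetate pH 7.5, 10mM Mg acetate, 0.01% Tween-20, 0.05% BSA; qHTS 6-point titration, ~60 µM downward; luminescence read.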
Further: nearly all actives have a fitted effect of over 55% in size.
Potency means the concentration at half of the fitted maximal effect; tags describe the fitted curve by direction and shape.

Row | SMILES | Potency
1 | O=C(O)CSc1nnc(COc2cccc3ccccc23)n1Cc1ccccc1 | inconclusive: 23.9 µM [inhibitor, partial curve]
2 | Nc1ccc(CSc2ccc(Cl)cc2)cc1 | active: 26.9 µM
3 | Cc1cc(C)cc(NC(=O)NC(C)C2CCCO2)c1 (stereo unspecified) | inconclusive: 30.1 µM [inhibitor, partial curve, poor fit]
4 | O=C(CSc1ccc2ccccc2c1)N1CCN(c2ccc(O)cc2)CC1 | inconclusive: 37.9 µM [inhibitor, partial curve, poor fit]
5 | O=S(=O)(NNc1ccc(Cl)nn1)c1ccc(F)cc1 | inconclusive: 23.9 µM [inhibitor, single point]
6 | COc1ccc(C(=O)c2ccc(Cl)cc2)cc1 | inconclusive: 23.9 µM [inhibitor, partial curve]
7 | Cc1ccccc1N1CCN(C(=O)CN2C(=O)c3ccccc3C2=O)CC1 | inconclusive: 23.9 µM [inhibitor, single point]
8 | O=C(Nc1cccnc1)c1ccc(COc2ccccc2Br)o1 | inconclusive: 21.3 µM [inhibitor, single point]
9 | O=C(NCCc1ccccc1)Oc1ccc(Cl)cc1 | inconclusive: 15.1 µM [inhibitor, partial curve]
10 | CC(C)NC(=O)N1CCCN(c2nc3ccc(Cl)cc3s2)CC1 | inconclusive: 23.9 µM [inhibitor, single point]
11 | S=C(NCC1CCCO1)N1CCN(c2ccccc2)CC1 (stereo unspecified) | inactive
12 | COc1cc2ccccc2cc1C(=O)Nc1cccc(-c2nc3cc(C)c(C)cc3o2)c1 | active: 1.2 µM
13 | NC(=O)NC(=O)C(Nc1ccc2c(c1)CCC2)c1ccccc1 (stereo unspecified) | inconclusive: 37.9 µM [inhibitor, partial curve, poor fit]
14 | O=C(Nc1cccc(-c2nc3cccnc3s2)c1)c1cccnc1Cl | active: 16.9 µM
15 | Cc1cc(C)c(NC(=O)C2CCN(c3nc4ccccc4n4cccc34)CC2)c(C)c1 | inactive
16 | CCOC(=O)c1ccc(NC(=O)c2nc[nH]c2C(=O)N2CCc3ccccc3C2)cc1 | inconclusive: 37.9 µM [inhibitor, single point]
17 | Cc1ccc(OCC(=O)N2N=C(c3ccncc3)CC2(O)C(F)(F)F)cc1C (stereo unspecified) | inconclusive: 15.1 µM [inhibitor, partial curve]
18 | CCOC(=O)C1CCN(c2ncnc3c2nc2n3CCCCC2)CC1 | inactive
19 | CC(C)(C)c1ccc(C(=O)N/N=C/c2cccc(Cl)c2)cc1 | active: 4.78 µM
20 | CCC(Oc1ccccc1)C(=O)Nc1nnc(S(=O)(=O)N(CC)CC)s1 (stereo unspecified) | inconclusive: 8.49 µM [inhibitor, partial curve]
21 | CCOC(=O)C1CCCN(C(=O)CCC(=O)Nc2ccc3nc(N4CCOCC4)cc(C)c3c2)C1 (stereo unspecified) | active: 16.9 µM
22 | O=C(Nc1cccc(S(=O)(=O)Nc2ccccc2F)c1)c1ccc2ccccc2n1 | active: 19 µM
23 | CC1CCN(C(=O)COC(=O)CCCN2C(=O)c3cccc4cccc(c34)C2=O)CC1 | inconclusive: 21.3 µM [inhibitor, partial curve, poor fit]

Row | SMILES | Potency
24 | CCOC(=O)C(=O)N/N=C/c1ccc(F)cc1 | active: 13.5 µM
25 | CCc1ccc(NC(=O)c2ccc(-c3ccccc3)s2)cc1 | inactive
26 | CCCSc1nnc(-c2c[nH]c3ccccc23)n1CC | inconclusive: 30.1 µM [inhibitor, single point]
27 | COc1ccc(C2NN=C(c3c[nH]c4ccccc34)C2O)cc1 (stereo unspecified) | inconclusive: 23.9 µM [inhibitor, single point]
28 | CCn1c(Cc2ccccc2)nnc1SCC(=O)Nc1ccc2c(c1)OCCO2 | inconclusive: 23.9 µM [inhibitor, partial curve]
29 | COc1ccccc1/C=C/C(=O)Oc1cccc2cccnc12 | inconclusive: 26.9 µM [inhibitor, single point]
30 | O=C(N/N=C/c1cc([N+](=O)[O-])ccc1O)NC12CC3CC(CC(C3)C1)C2 | inconclusive: 15.1 µM [inhibitor, partial curve]
31 | O=C(O)c1cc(O)c2c(c1)[C@H]([C@H]1c3cc(C(=O)O)cc(O)c3C(=O)c3c(O[C@@H]4O[C@H](CO)[C@@H](O)[C@H](O)[C@H]4O)cccc31)c1cccc(OC3O[C@H](CO)[C@@H](O)[C@H](O)[C@H]3O)c1C2=O (stereo partly specified) | inconclusive: 21.3 µM [inhibitor, partial curve, poor fit]
32 | CCCCc1nc2cc(C(=O)N(C)CCc3cn[nH]c3)ccc2o1 | inconclusive: 26.9 µM [inhibitor, single point]
33 | Cc1cccc2sc(NS(C)(=O)=O)nc12 | inconclusive: 23.9 µM [inhibitor, partial curve, poor fit]
34 | N#C/C(=C\c1ccc(N2CCOCC2)cc1)c1ccccc1 | inconclusive: 1.07 µM [inhibitor, full curve, poor fit]
35 | CCOC(=O)C(=O)Nc1sc(C(=O)N2CCOCC2)c(C)c1C#N | inactive
36 | COc1ccc(Cl)cc1NC(=O)Nc1cnccn1 | inactive
37 | O=C(O)C1CCCCC1C(=O)Nc1ccc2c(c1)OCCO2 (stereo unspecified) | inactive
38 | Cc1ccc(-c2csc(NC(=O)CSc3nc(C)cs3)n2)cc1 | inconclusive: 37.9 µM [inhibitor, single point]
39 | CCC(C)NC(=O)c1cc2cc3ccc(OC)cc3nc2o1 (stereo unspecified) | inconclusive: 23.9 µM [inhibitor, partial curve]
40 | CCN1CCCC(OC(=O)c2cc(-c3ccc(C)cc3)nc3ccccc23)C1 (stereo unspecified) | inconclusive: 37.9 µM [inhibitor, partial curve, poor fit]
41 | O=C(Cc1ccc(Cl)cc1)Nc1ncc([N+](=O)[O-])s1 | active: 15.1 µM
42 | O=C(CCc1ccccc1)Nc1nc2c(F)cc(F)cc2s1 | active: 16.9 µM
43 | CCCn1cnnc1CNC(=O)C1CCC(=O)N(CCc2cccc(F)c2)C1 (stereo unspecified) | inactive
44 | CCOC(=O)C1CCN(C(=O)c2ccc3c(c2)NC(=O)/C(=C/c2ccccc2)S3)CC1 | inactive
45 | COc1cccc(C(=O)Nc2nc3ccccc3[nH]2)c1 | active: 0.757 µM
46 | COc1cc(/C=C(/NC(=O)c2ccccc2Cl)C(=O)O)cc(OC)c1OC | inactive
